# Test results taken from the supplement of paper PMC3334620.
# Whole data set: some 33,000 sequences, median “E-score (-0.5 to 0.5)” near -0.012, cut for the highest 2% near 0.29. The list shows a part of the results.
# Molecular target: T1, Ybr033w (UniProt P38073)
# T1 sequence: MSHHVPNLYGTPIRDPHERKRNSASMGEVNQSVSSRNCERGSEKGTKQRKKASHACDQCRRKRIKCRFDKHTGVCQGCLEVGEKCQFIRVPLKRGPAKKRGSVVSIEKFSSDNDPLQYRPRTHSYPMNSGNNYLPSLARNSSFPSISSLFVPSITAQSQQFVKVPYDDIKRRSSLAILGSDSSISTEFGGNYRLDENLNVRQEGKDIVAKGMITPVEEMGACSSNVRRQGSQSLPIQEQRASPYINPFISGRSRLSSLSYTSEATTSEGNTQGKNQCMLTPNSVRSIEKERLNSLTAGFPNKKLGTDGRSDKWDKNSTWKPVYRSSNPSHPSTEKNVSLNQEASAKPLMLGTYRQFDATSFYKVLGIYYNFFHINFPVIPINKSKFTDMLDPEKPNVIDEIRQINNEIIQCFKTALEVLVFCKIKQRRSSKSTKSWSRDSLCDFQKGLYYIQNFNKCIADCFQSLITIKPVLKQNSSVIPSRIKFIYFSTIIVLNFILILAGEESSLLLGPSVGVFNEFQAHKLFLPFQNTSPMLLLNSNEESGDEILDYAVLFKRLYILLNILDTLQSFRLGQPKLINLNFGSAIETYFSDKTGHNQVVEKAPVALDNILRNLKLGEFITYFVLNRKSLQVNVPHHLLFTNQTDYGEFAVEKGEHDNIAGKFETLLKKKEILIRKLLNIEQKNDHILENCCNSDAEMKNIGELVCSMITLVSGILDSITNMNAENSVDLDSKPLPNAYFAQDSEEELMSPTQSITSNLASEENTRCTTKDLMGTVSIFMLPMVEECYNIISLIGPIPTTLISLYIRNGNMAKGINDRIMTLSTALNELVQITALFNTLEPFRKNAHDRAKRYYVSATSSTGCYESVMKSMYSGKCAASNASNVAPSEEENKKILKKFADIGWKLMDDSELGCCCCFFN
# Assay: PBM E-score (8-mer binding enrichment) (E-score (-0.5 to 0.5)); higher = stronger / more preferred TF binding; most listed sequences are background and not binding sites
# Settings: protein concentration: 200 nM; construct: GST-full length
# In short: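 Masliner-normalised scans of fluorescent anti-GST signal were the basis for scoring. That signal came from GST-tagged yeast transcription factors applied at about 100-200 nM to double-stranded universal all-10-mer Agilent arrays on fresh or once-stripped slides. Each ungapped eight-base word, pooled with its reverse complement, received an E-score from the Universal PBM Analysis Suite.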
row,Sequence,PBM E-score
1,GATAGAGC,0.00911
2,TGCCAAAA,0.0578
3,ACTTTACG,0.132
4,AAAGTTCA,0.157
5,GTATTAAC,0.0593
6,CGTGGGAA,-0.128
7,ATTTTGAA,0.175
8,GACTCAAC,-0.0389
9,CTTGCATA,0.106
10,AGCAGATA,0.0418
11,GATACAAC,0.0648
12,ATTTACGG,0.166
13,CCACTAAC,-0.013
14,TGCATGAA,0.165
15,CACCGTCG,-0.0934
16,ATTTAGCC,0.117
17,CCATTTAC,0.207
18,ACCACTAT,0.111
19,AAAGAGGT,0.0471
20,ACCCAGCG,-0.255
21,ACTGAGGA,0.00029
22,AAGGGATT,0.0557

row,Sequence,PBM E-score
1,AGGCCGAA,-0.117
2,GACATTAC,0.164
3,ATGATGAA,0.192
4,CACATCCC,-0.0423
5,GGCGATAA,-0.0929
6,CATAGTGG,0.0351
7,AGAAGCAG,-0.0975
8,GACGAGGA,-0.0297
9,ACAAGGTG,0.0226
10,AGCCGTGG,-0.15
11,CTCTGGTA,0.125
12,AGATCGTC,-0.149
13,ACCAACTG,-0.0123
14,TATCGCGA,0.132
15,CCTTGGGA,0.021
16,ACTTACCA,0.0956
17,AGTCGAGG,-0.128
18,TAATAGAA,0.198
19,ACCCCGAC,-0.383
20,CGGGCTAA,-0.196
21,AAAGTCCA,0.0646
22,GAACGAAC,0.117

row,Sequence,PBM E-score
1,ACTATCCT,0.125
2,AGGGCTAG,-0.15
3,AATCCCTA,0.0935
4,AGCCTGGA,-0.199
5,AGACAGAC,0.151
6,AGGGTCAG,-0.226
7,CTCAACTA,0.0837
8,GTAGACTA,-0.131
9,ATATAGAA,0.169
10,GTCCAGAA,-0.051
11,GAGATGGC,0.00969
12,CACTTTCG,0.0443
13,CACAGTTC,0.103
14,AGGTGGGG,-0.0216
15,GTCCCTGA,-0.196
16,CATAGCGA,-0.0889
17,CGTCACCC,-0.215
18,AAAATGGC,0.0583
19,CCGGCAAC,-0.195
20,CAAGTAGA,-0.00549
21,AGGGACGA,-0.16
22,TCTTACCA,0.0684

row,Sequence,PBM E-score
1,TGCATTAA,0.256
2,CTAGGAAA,0.0651
3,CCTTATGC,0.0726
4,GAGCTATC,-0.109
5,CCGTCCCG,-0.13
6,ATGACTGG,-0.17
7,GCGGCGGA,0.0283
8,CCTACCGC,-0.292
9,AGGTGTTC,-0.169
10,CAGGGGGG,-0.39
11,AGCTATTG,0.144
12,AAGAAGAA,0.185
13,GCGATATA,0.0771
14,ATGTCGCA,0.0279
15,ATACGCGC,0.00516
16,AGTCGTTG,-0.271
17,CGGAACAC,0.16
18,CAGAGGGA,-0.0678
19,TAATGCCA,0.0326
20,GCCTCAAC,-0.107
